# Article PMC12136788
# The list shows a part of the results.
# T1: UNK ZnF1-6 (called full-length) (human, UniProt Q9C0B0 30-357)
# T1 sequence: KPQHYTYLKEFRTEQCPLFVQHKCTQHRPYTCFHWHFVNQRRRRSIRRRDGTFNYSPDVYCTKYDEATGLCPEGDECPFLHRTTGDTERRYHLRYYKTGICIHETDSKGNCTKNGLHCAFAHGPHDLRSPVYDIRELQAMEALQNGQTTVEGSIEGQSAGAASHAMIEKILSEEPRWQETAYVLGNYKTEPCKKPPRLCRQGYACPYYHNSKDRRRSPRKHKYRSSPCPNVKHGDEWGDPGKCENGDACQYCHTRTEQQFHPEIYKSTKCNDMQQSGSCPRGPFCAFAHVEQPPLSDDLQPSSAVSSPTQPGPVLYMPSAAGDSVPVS
# B1: chr3:154276180:154276282:-|CDS|ENSG00000174953|unk|FALSE|unique (ssRNA)
# RNA: GGGAGUUCUACAGUCCGACGAUCUCAUCCUGUAGACUGGAAUGACACUAAAUCCAGAGACUGUGCAGUACUGUCAGCUAUUAUAGACUUGAUCAAAACACAGGAAAAGGCAACUCCCAGGAACUUUCCGCCACGAUUCCAGGACAACAGAGGAUUGAGCAUCA
# B2: ENSG00000107863:be:win_6151|3pUTR|ENSG00000107863|bound_else_gene|NA|bound_elsewhere_windowed (ssRNA)
# RNA: GGGAGUUCUACAGUCCGACGAUCAGAAAAUCGCUGGCAUCAGUGUGCAGCAAAUUUGUUCUUUUGGUUUCAUCACUAACAAAAGUGCCUCAUCAUAAAAAUACAGUUGGUUUUUAGGGUGCCAUAUUGUUAAAAUUAGAUAACCAACAGAGGAUUGAGCAUCA
# B3: ENSG00000120693:stop:overlap|stop_codon|ENSG00000120693|stop_codon|NA|stop_codon (ssRNA)
# RNA: GGGAGUUCUACAGUCCGACGAUCGCAUUAACCCUUACCACUACCGCCGGGUGGAGACUCCAGGUGACUUUGCGGUGAUCCUCUAGGAGCUUUUGGAAUAUUCCAGUUAUCCCGCAGUGUUUGAAAUUCAAGAUGGAAAGACUACAACAGAGGAUUGAGCAUCA
# B4: chr12:76025442:76025543:-|3pUTR|ENSG00000139289|msi1|FALSE|unique (ssRNA)
# RNA: GGGAGUUCUACAGUCCGACGAUCAUACACCAUCACAUUCAUGAAUUUUUUAGCAUGGUCAGAACUUGUGUAAAUAUGUCUCUUAGAUGAUUUUGGGGAGAUGUGAUUUAUUUUUCAUAUUUUCAAAAUGCAUUUCAUUUCAAACAACAGAGGAUUGAGCAUCA
# B5: chr1:25360731:25360844:+|3pUTR|ENSG00000183726|unk|FALSE|unique (ssRNA)
# RNA: GGGAGUUCUACAGUCCGACGAUCUUUUUUACUGCUCACUCCCAACCUUUUGUAAUGCCAUUUUCUAAACUUAUUUCUGAGUGUAGUCUCAGCUUAAAGUUGUGUAAUACUAAAAUCACGAGAACACCUAAACAACAACCAAAACAACAGAGGAUUGAGCAUCA
# B6: ENSG00000165244:stop:overlap|stop_codon|ENSG00000165244|stop_codon|NA|stop_codon (ssRNA)
# RNA: GGGAGUUCUACAGUCCGACGAUCUGCAUGGAGCCCUCGCGCUCAUAGAGCUUGCCAACCUGACUGGGGCGCCACUCCGACAGUAGCUUGGACACUGACUCUUCCACUGUACAAAAGUACUGCCCAGCAUACUUAAAAAGUAGACAACAGAGGAUUGAGCAUCA
# B7: chr6:52501983:52502084:-|3pUTR|ENSG00000065308|msi1|FALSE|unique (ssRNA)
# RNA: GGGAGUUCUACAGUCCGACGAUCGGCCGCCCUUGUUGAGUGUUCUUUGGAAUUGUCGUUUUUUGAGCACAACUACAGCAUUUUAGACUGCAUGAAACCAUGACUGACUGAGAGUCACUCUCUGGGUAGAUGAUAGGCGCCUUUCAACAGAGGAUUGAGCAUCA
# B8: chr12:442458:442559:+|3pUTR|ENSG00000120647|unk|FALSE|unique (ssRNA)
# RNA: GGGAGUUCUACAGUCCGACGAUCCCUGAGCAGAGCCUGAAUUACGUUUUUGGGCAAUUUCAUGGUGUUUCACCAGAGGGCGCUAGAGACUCAAACGAAAUGUCCAUCUGGAAAGAUUCGGGAGACACUUUGCCGAGGGGAUGACAACAGAGGAUUGAGCAUCA
# B9: chr2:42282796:42282970:+|CDS|ENSG00000143924|unk|total|mutant (ssRNA)
# RNA: GGGAGUUCUACAGUCCGACGAUCAUAUGGUUAUCGAGGAAAGGACUGCCGAGCUAAUGUUUACCUUCUUCCGACCGGGAAAACCGUUUAUUUCAUUGCAUCAGCCGCCGUACUAUUUAAUUAUGAGGAGAGAACUCAGCGACACAACAGAGGAUUGAGCAUCA
# B10: chr16:21655520:21655610:+|3pUTR|ENSG00000197006|msi1_unk|total|mutant (ssRNA)
# RNA: GGGAGUUCUACAGUCCGACGAUCUCUGUGUUCACAAUUACGUGAAGGGAGGACCCUUGGGGACCGCCAUUCUAAAUAUCAUGCCGGAAUUUAAAAAGCCAAAAUACUAAUUAUUUCUUUGCCGUGUGUAAAGGAAUGUUUUUACAACAGAGGAUUGAGCAUCA
# B11: chr11:73401874:73401975:-|3pUTR|ENSG00000054965|unk|FALSE|unique (ssRNA)
# RNA: GGGAGUUCUACAGUCCGACGAUCUGCAGGGUUUGUCCUUUACUUAUCUGCCCCUUUCCUAGAAAACUCCUCGUUUCUGAAAUUAGGCAUUAUAUGGUUCCAGGACCCAGCCUUCAAAAUUCCUGGCAGGCCAGCUUCAACAUUCAACAGAGGAUUGAGCAUCA
# B12: chr15:74955373:74955475:-|3pUTR|ENSG00000178718|unk|total|mutant (ssRNA)
# RNA: GGGAGUUCUACAGUCCGACGAUCGGACAGUUUUCCUUUCCCGUUUUCUUUCCCCUGCUUCAGAGGAGCAUCUCUGAGGGUUCCCGCUCUUUUAACACCCCUUUUCCCCCUGCUGGCCCAGAGGGAGACCCAGGACUGAACUCUCAACAGAGGAUUGAGCAUCA
# B13: chr2:224470697:224470798:-|3pUTR|ENSG00000036257|msi1|FALSE|bound_elsewhere (ssRNA)
# RNA: GGGAGUUCUACAGUCCGACGAUCUGUGACAAACUAAAGUUAAUACAUGAAGCAUUGCAAUAUGGAAUUUUGCACAUUUUUGUUAGCUUUACAUUAUUUGCUGAUACCAACUUUUGGUAGGAAGGAAAACAGGGAAGGUGAUUGCAACAGAGGAUUGAGCAUCA
# B14: ENSG00000155189:stop:overlap|stop_codon|ENSG00000155189|stop_codon|NA|stop_codon (ssRNA)
# RNA: GGGAGUUCUACAGUCCGACGAUCAUGUGAACACCUGGAUAUAUGGAACCCUACUUGGCUGCCUGUGGGUUACUAUUAAAGCAUAGACAAGUAGCUGUCUCCAGACAGUGGGAUGUGCUACAUUGUCUAUUUUUGGCGGCUGCACAACAGAGGAUUGAGCAUCA
# B15: ENSG00000143373:stop:overlap|stop_codon|ENSG00000143373|stop_codon|NA|stop_codon (ssRNA)
# RNA: GGGAGUUCUACAGUCCGACGAUCACUUCCGCACGCAUGGCAUGGCGUUCAUCAGGGCUCGGCAGGGGGCUGUUGGGGACAACUAGUCUCCAAGGCCUGGGACUGACCAGCCCCUUCCUCUUGGAGCCUGGUUUUCCCUACUGCCAACAGAGGAUUGAGCAUCA
# B16: ENSG00000164054:stop:overlap|stop_codon|ENSG00000164054|stop_codon|NA|stop_codon (ssRNA)
# RNA: GGGAGUUCUACAGUCCGACGAUCCAGGAUUUGAGCUGGGACAACAAGGAGGAGACAGUGCGGAACAAGCUCCCAGAGGGGCAUAGGAGGAGGAGUGGCUUCCUGGGGUUGUGGCAGCAGGGAGGUGACUGGGGCCAGCUCAGACAACAGAGGAUUGAGCAUCA
# B17: chr2:205796522:205796663:+|3pUTR|ENSG00000118257|msi1|total|mutant (ssRNA)
# RNA: GGGAGUUCUACAGUCCGACGAUCGUUUUUAUUAAGUGCCUUGAAAAAAUGAAGAAAAAUGUAUUUUCCCUUUAUGUAAAAAUCCGUGAAUAUCUUAUGAAUUAAGGCAUUCCUCUUUCCCUAACCCCGAUGGCUCCAUUCCCACAACAGAGGAUUGAGCAUCA
# B18: chr6:73594753:73594854:-|3pUTR|ENSG00000119899|unk|total|mutant (ssRNA)
# RNA: GGGAGUUCUACAGUCCGACGAUCGGUUCACAUACCUGCCUGCCCGUCGGGCAACAUGAAGCCGGACAGUUCUGUUGAUUUUUCCGGGCCAUACUAAAGGGAAUGAGCUGAAACAGACCUCCUGAUACCUUUGCUUAAUUAAACCAACAGAGGAUUGAGCAUCA
# B19: chr17:63832812:63832858:-|3pUTR|ENSG00000108604|msi1_unk|FALSE|overlapping (ssRNA)
# RNA: GGGAGUUCUACAGUCCGACGAUCCCAGCCCUGGAGCCUGGAGGGAGACCACCCUCUGGGUCCUUGCUGGGGCCGCAGACACGUAGGCUGGGGUGAGGAGUGUCUGCUGUCACCCUCUACUCUCCAGCUUUAGUCUUAUAAAUGCAACAGAGGAUUGAGCAUCA
# B20: ENSG00000107863:be:win_3601|CDS|ENSG00000107863|bound_else_gene|NA|bound_elsewhere_windowed (ssRNA)
# RNA: GGGAGUUCUACAGUCCGACGAUCAAGGGAAUGGCUGAUAUUGAUAUACAAGAUGAUAAAUGGCGAGAUUUGAAUGUGAUAAGCAGUUUACUAAAAUCCUUCUUCAGAAAACUCCCUGAGCCUCUCUUCACAAAUGAUAAAUAUCAACAGAGGAUUGAGCAUCA
# B21: chr3:160434497:160434598:+|3pUTR|ENSG00000113810|msi1|total|mutant (ssRNA)
# RNA: GGGAGUUCUACAGUCCGACGAUCUUUAUGACCGGUUUAUCCGGGUACUAAAUGCAUUUCAACUUGACCGUUUCAACUUAUGACCGGUUUACCAGGAUGCCGUCCCACUGUUGAGGAGCAUCUAUUCCGGGGUUAAUUACUUUACAACAGAGGAUUGAGCAUCA
# B22: chr16:20924479:20924582:+|3pUTR|ENSG00000102897|unk|total|mutant (ssRNA)
# RNA: GGGAGUUCUACAGUCCGACGAUCCUACUAUAAAACUAUGUACCACUCUCAGAAUAUUCUCCGGCUUUUUUUUUUUCAAGUUACCGAUUUGCUUAAAGUGAGGUUUUUUGGUGUGUGCUUUUUUGUUGUCUUUUGACCCUUCCACAACAGAGGAUUGAGCAUCA
# Target: T1, UNK ZnF1-6 (called full-length)
# Test: nsRBNS (natural sequence RNA bind-n-seq); RBNS binding buffer (assumed for nsRBNS): 25 mM Tris pH 7.5, 150 mM KCl, 3 mM MgCl2, 0.01% Triton X-100, 500 ug/ml BSA, 20 U/ml SUPERase-In, 4 C; UNK is unkempt and MSI1 is Musashi-1; names of the RNAs are library labels; protein concentration not given here; high values mean tight binding
row,Binder,binding signal [enrichment R]
1,B1,0.566
2,B2,0.619
3,B3,1.53
4,B4,0.888
5,B5,0.614
6,B6,0.446
7,B7,0.504
8,B8,0.538
9,B9,0.857
10,B10,0.41
11,B11,0.79
12,B12,0.865
13,B13,0.481
14,B14,0.408
15,B15,0.569
16,B16,0.709
17,B17,0.382
18,B18,0.619
19,B19,1
20,B20,0.528
21,B21,0.363
22,B22,0.953
